Test results as given in the supplement of paper PMC4166925.
± gives the standard deviation of the averaged measurements. The full ranking holds about 33,000 sequences; the median of “E-score (dimensionless, -0.5 to 0.5)” is about -0.049, and the highest 2% start at about 0.37. Some of the results follow.

system: T1, PmTbr T-box DNA-binding domain (GST fusion); assay: PBM E-score of 8-mer (E-score (dimensionless, -0.5 to 0.5)); Tbr is Tbrain of the sea star Patiria miniata (Pm) or the sea urchin Strongylocentrotus purpuratus (Sp); higher = stronger binding preference; most listed sequences are background and not binding sites; conditions: the construct has about 5 more residues each side
T1 sequence: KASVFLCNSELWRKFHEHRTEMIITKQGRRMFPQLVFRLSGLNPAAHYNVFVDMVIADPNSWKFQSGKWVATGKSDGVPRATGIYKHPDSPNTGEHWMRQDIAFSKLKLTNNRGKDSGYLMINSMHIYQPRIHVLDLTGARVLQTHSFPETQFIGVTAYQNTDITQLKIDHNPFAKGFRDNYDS
Outline: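 GST-fused Tbr T-box DNA-binding domains (the whole T-box plus about five flanking residues) were expressed in BL21 E. coli at 20 °C and purified by glutathione affinity chromatography. Universal Agilent oligonucleotide arrays were made double-stranded by primer extension, incubated with 200 nM protein in PBS (pH 7.5), then scanned and quantified. Every ungapped 8-mer was scored from probe intensities. The Universal PBM Analysis Suite gave each word an enrichment E-score, averaged over duplicate arrays.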

In order of falling “PBM E-score of 8-mer” value:
1. AGCACCTA  0.435 ± 0.00088
2. ATAGGTGC  0.414 ± 0.0057
3. ACACATTC  0.387 ± 0.016
4. AGTTCTCA  0.335 ± 0.02
5. CACCCACA  0.322 ± 0.02
6. TGCGACAA  0.296 ± 0.013
7. CGCCGCAC  0.289 ± 0.038
8. CTCGCGAG  0.282 ± 0.025
9. CGCGCGTA  0.262 ± 0.015
10. CCGACACG  0.261 ± 0.013
11. GTCACGTA  0.258 ± 0.044
12. CGGTCGCA  0.242 ± 0.0082
13. CGCGCCCG  0.236 ± 0.069
14. CTGCCACA  0.226 ± 0.014
15. CTTTTAGC  0.22 ± 0.074
16. GCTTTTCA  0.212 ± 0.1
17. AGCGCGTA  0.2079 ± 0.00075
18. ATCTTCGC  0.2 ± 0.02
19. AACAAATC  0.198 ± 0.045
20. AATGTTGT  0.191 ± 0.021
21. AAAAAAAA  0.181 ± 0.14
22. TCACCAAA  0.177 ± 0.043
23. GGGGTGTA  0.175 ± 0.0049
24. CGCAAATC  0.155 ± 0.018
25. ATGGGTGA  0.153 ± 0.043
26. CGCCATCA  0.148 ± 0.047
27. CACGCCGA  0.131 ± 0.054
28. CGAAAACA  0.117 ± 0.031
29. CTAGCAAA  0.113 ± 0.039
30. CCTAGTGC  0.113 ± 0.021
31. CTCTAGCA  0.11 ± 0.052
32. ACCCTGTC  0.0965 ± 0.015
33. GTTCCACA  0.0935 ± 0.091
34. TCCACAAA  0.0815 ± 0.0024
35. CGTCACGA  0.0777 ± 0.0028
36. ACCCCTCC  0.0689 ± 0.018
37. AACGCACC  0.0687 ± 0.032
38. TATACCAA  0.0681 ± 0.037
39. GCGTAAAA  0.0638 ± 0.066
40. AACGCGGA  0.062 ± 0.03
41. ATAGCATA  0.057 ± 0.018
42. AAAAAATA  0.0569 ± 0.096
43. GCTACTAA  0.0526 ± 0.064
44. CGACTGTC  0.0491 ± 0.14
45. ACGATTTA  0.0453 ± 0.00064
46. GCGAGCAA  0.0445 ± 0.074
47. AAATAGGT  0.0404 ± 0.07
48. ACGAGATG  0.0399 ± 0.024
49. GGAAATAA  0.0367 ± 0.013
50. AGGCACTC  0.0266 ± 0.06
51. ACCCTACA  0.024 ± 0.052
52. CATGACGG  0.0229 ± 0.11
53. CGTTGAAA  0.0196 ± 0.027
54. GGTAACGA  0.0174 ± 0.026
55. AAGTCATG  0.017 ± 0.0099
56. TGTCTCAA  0.0166 ± 0.065
57. GCTATCAA  0.0124 ± 0.05
58. GGAGCCAA  0.0103 ± 0.085
59. GTCTACCA  0.00932 ± 0.025
60. CGGTCCCA  0.00853 ± 0.048
61. GTTACCTA  0.00641 ± 0.065
62. CGGCAGAG  0.00638 ± 0.076
63. TAAATTGA  0.00543 ± 0.037
64. ACGCTCAA  0.00488 ± 0.053
65. AATTTCCC  0.0027 ± 0.073
66. AAGCCACT  0.000585 ± 0.037
67. CCGCAGGC  0.000335 ± 0.0022
68. AAGCAGAA  -0.00243 ± 0.12
69. ACGTATGA  -0.00267 ± 0.0085
70. GAAAGCTA  -0.00503 ± 0.012
71. GCGGACGA  -0.00532 ± 0.044
72. AATCCGGG  -0.00925 ± 0.029
73. ATACGTAA  -0.0111 ± 0.035
74. CCGCTGCG  -0.0153 ± 0.031
75. CATTCGAC  -0.0169 ± 0.0046
76. ACCTGAAG  -0.0171 ± 0.064
77. CGAGAGCA  -0.0175 ± 0.0036
78. ATTTCCGC  -0.0197 ± 0.0077
79. ATGCGATG  -0.0215 ± 0.034
80. CGAGATAA  -0.023 ± 0.048
81. CGTTCCCC  -0.0259 ± 0.031
82. GAAGAAGC  -0.029 ± 0.038
83. CTCTAAAC  -0.0367 ± 0.027
84. ACCCGAAC  -0.037 ± 0.034
85. AAGCCTGT  -0.0372 ± 0.058
86. AGACAGTA  -0.0399 ± 0.045
87. CGGCTACA  -0.0468 ± 0.08
88. CTTGAAAA  -0.0559 ± 0.0075
89. ACTATTAT  -0.056 ± 0.033
90. CAAATGGG  -0.0564 ± 0.029
91. CAGTGAGC  -0.0576 ± 0.033
92. AGGGGTTG  -0.0593 ± 0.025
93. GATTTTCA  -0.0598 ± 0.093
94. GATTATCC  -0.0623 ± 0.022
95. TCTGGCAA  -0.0682 ± 0.078
96. AAAAGGGG  -0.0705 ± 0.051
97. GGATGATA  -0.074 ± 0.044
98. AGGGGTAG  -0.085 ± 0.024
99. ACTCAACT  -0.0871 ± 0.011
100. ACCGTCTG  -0.0903 ± 0.044
101. ATCCCGAA  -0.0919 ± 0.037
102. ACTGTAGC  -0.0923 ± 0.037
103. CGGGTTAA  -0.0931 ± 0.03
104. AATCGTTG  -0.0951 ± 0.017
105. GTATTGAA  -0.0973 ± 0.063
106. ATGGTACA  -0.0984 ± 0.012
107. AGTAAACT  -0.108 ± 0.023
108. AATAGATA  -0.108 ± 0.032
109. CATTACAG  -0.113 ± 0.059
110. GGAGCCAC  -0.115 ± 0.021
111. CTCTCTAC  -0.115 ± 0.064
112. CATTAGCC  -0.12 ± 0.059
113. CGCAGGCA  -0.12 ± 0.027
114. GGGCACCA  -0.125 ± 0.059
115. CTCTCCCC  -0.127 ± 0.018
116. ACTGGTTC  -0.13 ± 0.048
117. CCGGCGAA  -0.133 ± 0.079
118. AATATCAT  -0.136 ± 0.089
119. AAGGAGAT  -0.142 ± 0.059
120. ATGGTCTC  -0.144 ± 0.065
121. ACGAGACT  -0.147 ± 0.073
122. ATACAGTC  -0.149 ± 0.035
123. AGTAAGTA  -0.149 ± 0.064
124. CCAACCAG  -0.149 ± 0.0091
125. CCCCGGCA  -0.152 ± 0.025
126. AATCTTGG  -0.154 ± 0.068
127. CACTGAGA  -0.158 ± 0.085
128. CCGGAATC  -0.159 ± 0.0056
129. CTGGCCAG  -0.16 ± 0.073
130. AGCACAAG  -0.161 ± 0.021
131. CCGCCAGG  -0.161 ± 0.037
132. CGGGGCAC  -0.163 ± 0.0096
133. AACCGGTC  -0.168 ± 0.018
134. GCCGGGGA  -0.1699 ± 0.0012
135. CGCCCCCA  -0.173 ± 0.087
136. GCTCTCTA  -0.176 ± 0.03
137. CCACGGGA  -0.177 ± 0.043
138. CCGCAACC  -0.182 ± 0.03
139. AATTGGGC  -0.184 ± 0.03
140. CGGTACTA  -0.19 ± 0.068
141. CGGCGAAG  -0.192 ± 0.074
142. AGCCGACC  -0.193 ± 0.028
143. CTACTAAG  -0.196 ± 0.044
144. AGACCGGA  -0.197 ± 0.075
145. AAATGAGA  -0.202 ± 0.11
146. TGAATGCA  -0.205 ± 0.0086
147. ACTGTATC  -0.207 ± 0.022
148. GTAGTCTA  -0.207 ± 0.03
149. ATCGAGCA  -0.207 ± 0.06
150. TAGACCCA  -0.208 ± 0.061
151. ATTAGGGG  -0.208 ± 0.071
152. AATCCTAA  -0.211 ± 0.041
153. AGAGGGAA  -0.213 ± 0.03
154. AGAGCATG  -0.214 ± 0.092
155. AGGATAGC  -0.217 ± 0.034
156. ATCCCCTA  -0.219 ± 0.078
157. AGATCCGA  -0.221 ± 0.013
158. CCACTGAA  -0.221 ± 0.016
159. GGAATCCA  -0.221 ± 0.047
160. TCCTCCCA  -0.228 ± 0.011
161. AACTCTAA  -0.234 ± 0.037
162. AATGTTCT  -0.239 ± 0.056
163. CAGGCTAA  -0.242 ± 0.019
164. AGGCATAG  -0.243 ± 0.032
165. ATGGAATG  -0.2435 ± 0.0015
166. CGGCCGTA  -0.244 ± 0.051
167. AACGTCTG  -0.247 ± 0.0067
168. AGGTACAC  -0.258 ± 0.033
169. TCGTAGAA  -0.271 ± 0.018
170. CTACGGCC  -0.271 ± 0.072
171. AGGAAGGG  -0.28 ± 0.01
172. TGCATACA  -0.329 ± 0.054
